In PubChem BioAssay AID1159614 (National Center for Advancing Translational Sciences (NCATS), 2016):
Out of some 45,000 compounds screened, about 65 (0.1%) were called active. The call rests on the fitted dose curve; in most records, active means well fitted activation curve with a large enough effect; inconclusive means small, poorly fitted or top-dose-only effect; inactive means no such curve, though single readings can be large or run the other way. The list shows a part of the results.

biological target: Galactocerebrosidase (Homo sapiens) (UniProt P54803); test: A Novel Cell-Based Assay to Identify Small Molecules for B -Galactocerebrosidase; settings: 145M-Twi-hGALC-G270D cells (Twitcher mouse brain line with human GALC G270D), HMU-beta-Gal fluorescence, 48 h; series mostly up to 57.5 µM; activation: at the top concentration; further: 0% is about no effect; nearly all actives have a fitted effect of over 65% in size
Chain of UniProt P54803 (P54803 whole entry, looked up): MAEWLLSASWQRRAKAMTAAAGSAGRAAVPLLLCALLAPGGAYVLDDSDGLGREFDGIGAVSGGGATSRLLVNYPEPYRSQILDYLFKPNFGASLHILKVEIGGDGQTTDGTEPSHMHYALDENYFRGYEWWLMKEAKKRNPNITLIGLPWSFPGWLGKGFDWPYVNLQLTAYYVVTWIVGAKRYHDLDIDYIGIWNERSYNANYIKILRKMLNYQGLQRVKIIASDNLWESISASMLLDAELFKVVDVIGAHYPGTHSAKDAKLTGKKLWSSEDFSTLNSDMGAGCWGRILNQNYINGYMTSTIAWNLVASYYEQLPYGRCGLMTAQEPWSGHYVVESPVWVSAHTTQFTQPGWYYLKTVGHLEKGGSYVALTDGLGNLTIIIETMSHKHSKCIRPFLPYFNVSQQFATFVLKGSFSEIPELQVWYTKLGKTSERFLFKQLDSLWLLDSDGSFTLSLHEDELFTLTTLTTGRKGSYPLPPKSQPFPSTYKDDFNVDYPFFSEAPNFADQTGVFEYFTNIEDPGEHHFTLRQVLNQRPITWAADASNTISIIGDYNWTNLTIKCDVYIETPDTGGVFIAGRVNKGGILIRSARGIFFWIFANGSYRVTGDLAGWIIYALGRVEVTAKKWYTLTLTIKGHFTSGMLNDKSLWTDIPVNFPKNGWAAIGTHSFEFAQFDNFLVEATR
How it was run: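 Fluorogenic HMU-b-Gal hydrolysis (0.1 mM final, pH 5.2 citrate-phosphate with 1 mg/mL sodium taurocholate; carbonate stop buffer) measures mutant GALC activity after compound treatment of live 145M-Twi Twitcher brain cells stably carrying human GALC-G270D, with wild-type GALC line alongside; activation sought.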

activation, inactive:
Cc1nc2ncnn2c(C)c1CCC(=O)NCc1ccccc1Cl -9.82%
O=C1CCSC2(C(=O)N(Cc3ccc(F)cc3)c3ccccc32)N1c1ccc(F)c(F)c1 (stereo not drawn) 3.02%
CCc1ccc(-c2nc(CS(=O)CC(=O)NCCc3ccc(Cl)cc3)c(C)o2)cc1 (stereo not drawn) -11.2%
CCOc1ccc2oc(=O)cc(CN3CCN(C(=O)c4ccc(F)cc4)CC3)c2c1 -13.3%
CCNC(=O)CC1C(=O)N(c2cccc(OC)c2)C(=O)N1Cc1ccc(OC)c(OC)c1 (stereo not drawn) -8.5%
COCCn1c(=N)c(C(=O)NC(C)c2ccccc2)cc2c(=O)n3cc(C)ccc3nc21 (stereo not drawn) -19.4%
COc1ccc(CCNC(=O)C(=O)NCC(c2ccco2)S(=O)(=O)c2ccc(F)cc2)cc1 (stereo not drawn) -0.212%
COc1ccccc1OCC(O)CO (stereo not drawn) -11.1%
CCOCc1ccccc1Nc1ncnc2onc(-c3ccc(Cl)cc3)c12 -7.19%
CCC(Sc1nncn2c1cc1oc(C)cc12)C(=O)Nc1ccc(F)cc1 (stereo not drawn) -12.8%
CCc1cccc(NC(=O)C(c2ccccc2)N2Cc3ccccc3C2=O)c1 (stereo not drawn) -20.5%
CCOC(=O)c1scc(-c2ccccc2)c1S(=O)(=O)Nc1cc(OC)cc(OC)c1 -7.08%
CC(C)Oc1ccc(CNC(=O)CCCN2C(=O)c3cccnc3Oc3ccc(Cl)cc32)cc1 -8.94%
COc1ccc(CC(=O)N2CCc3cc(OC)c(OC)cc3C2COc2ccc(OC)cc2)cc1 (stereo not drawn) -18.3%
CCC(=O)N1CCc2cc(Br)cc(S(=O)(=O)Nc3ccc(C)cc3C)c21 -4.2%
CCN(C(=O)c1cc2c(s1)-c1c(C)cccc1OC2)c1ccccc1F -6.18%
Cc1ccc(C)c(NC(=O)c2cnn(-c3cccc(F)c3)c2C2CCN(C(=O)OC(C)(C)C)CC2)c1 -12.1%
CCOc1ccc(NS(=O)(=O)c2ccc(-c3cc(C)no3)s2)cc1 1.01%
O=C(Cn1cc(SCc2c(F)cccc2Cl)c2ccccc21)N1CCCCCC1 -7.67%
COc1ccc(-n2nc(C(=O)N(C)c3cc(C)ccc3C)c3c4ccccc4n(C)c3c2=O)cc1Cl -5.02%
CCC(=O)N1c2ccccc2CC1C(=O)NCCc1ccccc1C (stereo not drawn) -6.14%
Cc1c(Cl)cccc1NC(=O)c1cnc2sc(N3CCOCC3)nn2c1=O 16.4%
CCN(c1ccccc1)S(=O)(=O)c1ccc(NC(=O)c2cc(=O)c3cc(C)cc(C)c3o2)cc1 -9.89%
COc1ccc(OC)c(CCNC(=O)CCCn2c(=O)c3cccn3c3ccccc32)c1 -10.5%
COc1ccc2oc(=O)cc(CN3CCN(Cc4ccccc4)CC3)c2c1 -0.944%
Cc1cc2ccccc2n1CCNC(=O)c1cccc(Br)c1 -12.1%
Cc1ccc(S(=O)(=O)Nc2ccc3c(c2)CCCN3C(=O)c2cccs2)cc1 -46.4%
O=C(CSc1cn(CC(=O)N2CCOCC2)c2ccccc12)Nc1ccccc1F -16.2%
O=C(Nc1ccc2nn(-c3ccccc3)nc2c1)c1cc2ccccc2o1 -15.6%
Cc1cc(C)c2c(CC(=O)N3CCN(c4cccc(Cl)c4)CC3)coc2c1 -29.3%
CCc1ccc(CNc2ncnc3c2nc2n3CCCC2)cc1 -8.47%
CCc1cccc(NC(=O)Cn2c(=O)ccc3cc(S(=O)(=O)N4CCC(C)CC4)ccc32)c1 -5.34%
CCOc1ccccc1N1CC(c2nc3ccccc3n2CCOc2ccccc2)CC1=O (stereo not drawn) -3.87%
Cc1cccc(C)c1OCC(C)N (stereo not drawn) -14.7%
O=C(c1ccc2c(c1)N(Cc1ccc(Cl)cc1)C(=O)c1ccccc1S2=O)N1CCOCC1 (stereo not drawn) -3.4%
COc1ccc(C(CNC(=O)c2oc3ccc(Cl)cc3c2C)N2CCCCC2)cc1 (stereo not drawn) -19.5%
COc1cccc(N2CCN(C(=O)c3ccc(Cn4c(=O)[nH]c5cc(OC)c(OC)cc5c4=O)cc3)CC2)c1 -4.96%
CC1CCc2nc3ncn(Cc4ccccc4C#N)c(=O)c3cc2C1 (stereo not drawn) -9.68%
CCCCNc1nc2c(c(=O)n(Cc3ccc(Cl)cc3)c(=O)n2C)n1C -9.42%
COC(=O)c1ccc(CSc2nc3c([nH]c4ccccc43)c(=O)n2-c2ccc(Cl)cc2)o1 -16.3%
COc1cccc(CSc2nc3cc(C(=O)NC4CCCC4)ccc3c(=O)n2Cc2ccccc2)c1 -12.3%
Nc1nnc2c(n1)[nH]c1ccccc12 -15.7%
O=C1CC(c2nc3ccccc3[nH]2)CN1c1cccc(Cl)c1 (stereo not drawn) -4.06%
CCCC(=O)N(c1ccc2oc3c(c2c1)CCCC3)S(=O)(=O)c1cc(C)ccc1C -11.1%
Cc1cc(Cl)ccc1NC(=O)c1cc(S(=O)(=O)N2CCOCC2)cn1C -2.23%
COc1ccc(-n2cc(C(=O)NCc3ccccc3)c3ccccc3c2=O)cc1 1.54%
O=C(CSc1nc2ccccc2n1Cc1ccccc1)N1CCN(c2ccc(F)cc2)CC1 -3.66%
COc1ccc(CN2CCN(Cc3cc(=O)oc4cc(C)ccc34)CC2)c(OC)c1OC 12%
Cc1ccc(C)c(N2CCN(C(c3ccccc3)c3nnc(-c4ccccc4F)o3)CC2)c1 (stereo not drawn) -18.5%
COc1ccc(CCCc2nnc(SCC(=O)Nc3ccc(C)cc3)o2)cc1 -15.6%
Cc1cccn2c(=O)c(/C=C(\C#N)c3nc4ccccc4[nH]3)c(Oc3ccc(C(C)(C)C)cc3)nc12 -27.9%
CCOc1ccc(-c2ccc(NS(=O)(=O)c3ccc(C)cc3)cc2)nn1 -7.85%
O=C(CCc1nc(-c2cccs2)no1)Nc1cccc([N+](=O)[O-])c1 -18.4%
Cc1ccc(OCC(=O)Nc2cc3nn(-c4ccccc4)nc3cc2C)cc1 -8%
Cc1ccsc1CN(C(=O)COc1ccc(Br)cc1)C1CCS(=O)(=O)C1 (stereo not drawn) -14.2%
CCOc1ccc(Sc2cc(C(=O)NC(C)c3ccccc3)c3ccccc3n2)cc1 (stereo not drawn) -12.6%
Cc1cc(Cl)ccc1NC(=O)C(=O)NCc1ccco1 2.98%
Cc1ccc(C(=O)Nc2ccc(NC(=O)c3cccs3)cc2)cc1C -3.66%
Cc1cc(C)c(NC(=O)Cn2c(=O)n(-c3ccc(CC(=O)NCC4CCCO4)cc3)c(=O)c3ccccc32)c(C)c1 (stereo not drawn) -4.09%
Cc1ccc(-c2nc3n(n2)C(=O)CC(c2ccc(Cl)cc2)S3)cc1 (stereo not drawn) -9.97%
Cc1ccc(OCC(=O)OCc2cc(=O)n3nc(-c4cccs4)sc3n2)cc1C -19.7%
O=C(NCc1ccc(F)cc1)c1cc2n(n1)CCCN(Cc1ccc(F)cc1)C2=O -13.4%
Cc1ccc(C(=O)Nc2sc3c(c2C(=O)NCc2ccco2)CCC(C(C)(C)C)C3)cc1 (stereo not drawn) -17.9%
Cc1ccc(C)c(N2CCN(CCCNC(=O)c3cnn(-c4ccccc4Cl)c3C3CCN(C(=O)OC(C)(C)C)CC3)CC2)c1 -22.1%
Cc1ccc2nc(NC(=O)COc3ccc(F)cc3)sc2c1 -11.3%
CCc1cccc(NC(=O)CSC2=Nc3ccccc3N=C(c3ccc(F)cc3)C2)c1 -29.4%
CCOc1ccccc1C(=O)Nc1ccc(S(=O)(=O)Nc2nc(C)cc(C)n2)cc1 -20.2%
COc1cc(NC(=O)CN(c2ccc(C)cc2)S(=O)(=O)c2cccc3nonc23)cc(OC)c1 -20.4%
CCN1CCN(c2nc3c(S(=O)(=O)c4ccc(Br)cc4)nnn3c3ccsc23)CC1 -10.3%
Cc1ccc(NC(=O)Cn2cnc3sc(C(=O)O)c(C)c3c2=O)cc1Cl -14.2%
O=C(CSc1nnc(CNC(=O)c2cccc(F)c2)n1-c1ccccc1)Nc1ccccc1F -24.3%
Cc1c(CCNC(=O)c2ccc(Br)o2)sc2nc(-c3ccc(F)cc3)nn12 2.9%
COc1ccc2c(CNCc3cccs3)c(C(=O)O)n(Cc3ccccc3)c2c1 -6.46%
COc1ccc(NC(=O)Cn2c(SCc3cc(C)ccc3C)nc3ccncc32)c(OC)c1OC -19.1%
CCOc1ccccc1NC(=O)Cn1cc(C(=O)c2cccc(OC)c2)c(=O)c2ccc(C)nc21 -10.5%
O=C(Cn1c(=O)c2cccn2c2ccccc21)NCCc1ccccc1 -3.17%
CCOc1cc(CNC(=O)C2COc3ccccc3C2)cc(OCC)c1OCC (stereo not drawn) -14.7%
CCOc1ccc(-c2nonc2NC(=O)COc2c(C)cc(C)cc2C)cc1OCC -4.24%
CCCCCn1c(C(C)NC(=O)c2ccccc2)nc2ccccc21 (stereo not drawn) -4.59%
COc1ccc(Nc2nc(-c3ccc(C)cc3)nc3ccccc23)c(OC)c1 -14.5%
Fc1ccc(-c2noc3ncnc(NCCc4ccccc4)c23)cc1 -11.2%
COc1ccc2c(c1)c1c(c(=O)n(Cc3ccccc3)c(=O)n1CC(=O)NCc1ccccc1Cl)n2C -7.18%
O=C(COc1ccc(Cl)cc1)Nc1ccc(-c2nc3ccccc3s2)c(O)c1 -10.4%
CCOC(=O)C1CCC(CN(Cc2cccc(Br)c2)S(=O)(=O)c2ccc(C)cc2)CC1 (stereo not drawn) -6.91%
CCc1ccc(C(=O)c2cn(CC(=O)Nc3ccc4c(c3)OCO4)c3cc(OC)c(OC)cc3c2=O)cc1 -10.8%
COc1ccc(S(=O)(=O)Nc2ccc3c(c2)N(C(C)=O)CCC3)cc1F -3.52%
Cc1ccc(-c2nnc(SCc3ccccc3C)o2)cc1 -3.68%
CCc1ccccc1NC(=O)c1c(NC(=O)c2ccccc2)sc2c1CCCC2 -6.01%
CCOc1cc(OCC)c(C(=O)CCC(=O)O)cc1OCC -18.2%
Cc1ccc(C)c(N2CCN(C(=O)C3CCCN(S(=O)(=O)c4ccc5c(c4)oc(=O)n5C)C3)CC2)c1 (stereo not drawn) 0.435%
Cc1ccccc1C(=O)n1nc(-c2ccco2)nc1NCc1ccc(Cl)cc1 -2.4%
COc1ccc(CCn2cc3c(c2-c2ccc(Br)cc2)c(=O)n(C)c(=O)n3C)cc1OC -8.38%
Cc1ccc(C(C)C)c(OCC(=O)NCC2(N(C)C)CCCCC2)c1 -7.4%
COc1ccc(CNC(=O)CCn2cccn2)cc1 -4.56%
Cc1ccccc1N1CC(c2nc3ccccc3n2CCC2CCCCC2)CC1=O (stereo not drawn) -37.6%
O=C(NCCc1ccccc1Cl)c1ccc(Cn2c(=O)c3cccn3c3cccnc32)cc1 0.176%
COc1ccc(-c2nc(C)c(CCNC(=O)C(=O)Nc3ccccc3OC)s2)cc1 -19.7%
COc1ccc(OC(=O)N(CC(=O)O)Cc2ccc(OCCc3nc(-c4ccccc4)oc3C)cc2)cc1 0.26%
